One protein from PMC6588349, “Conformational dynamics between transmembrane domains and allosteric modulation of a metabotropic glutamate receptor” (eLife, 2019) can be followed below.

This series concerns the molecule itself. Kind of series: single-molecule pulldown (SiMPull) with subunit counting by photobleaching steps; surface receptors labelled with BG-LD555 on HEK 293T cells, lysed in 1.2% IGEPAL, diluted in 0.1% IGEPAL, immobilised by biotinylated anti-HA antibody on a PEG-passivated coverslip, TIRF imaging; SNAP labelling efficiency ~80%; background two-step bleaching ~5-10%.

B1: SNAP-mGluR5 (receptor, human, UniProt P41594 21-1212, looked up)
chain: QSSERRVVAHMPGDIIIGALFSVHHQPTVDKVHERKCGAVREQYGIQRVEAMLHTLERINSDPTLLPNITLGCEIRDSCWHSAVALEQSIEFIRDSLISSEEEEGLVRCVDGSSSSFRSKKPIVGVIGPGSSSVAIQVQNLLQLFNIPQIAYSATSMDLSDKTLFKYFMRVVPSDAQQARAMVDIVKRYNWTYVSAVHTEGNYGESGMEAFKDMSAKEGICIAHSYKIYSNAGEQSFDKLLKKLTSHLPKARVVACFCEGMTVRGLLMAMRRLGLAGEFLLLGSDGWADRYDVTDGYQREAVGGITIKLQSPDVKWFDDYYLKLRPETNHRNPWFQEFWQHRFQCRLEGFPQENSKYNKTCNSSLTLKTHHVQDSKMGFVINAIYSMAYGLHNMQMSLCPGYAGLCDAMKPIDGRKLLESLMKTNFTGVSGDTILFDENGDSPGRYEIMNFKEMGKDYFDYINVGSWDNGELKMDDDEVWSKKSNIIRSVCSEPCEKGQIKVIRKGEVSCCWTCTPCKENEYVFDEYTCKACQLGSWPTDDLTGCDLIPVQYLRWGDPEPIAAVVFACLGLLATLFVTVVFIIYRDTPVVKSSSRELCYIILAGICLGYLCTFCLIAKPKQIYCYLQRIGIGLSPAMSYSALVTKTNRIARILAGSKKKICTKKPRFMSACAQLVIAFILICIQLGIIVALFIMEPPDIMHDYPSIREVYLICNTTNLGVVTPLGYNGLLILSCTFYAFKTRNVPANFNEAKYIAFTMYTTCIIWLAFVPIYFGSNYKIITMCFSVSLSATVALGCMFVPKVYIILAKPERNVRSAFTTSTVVRMHVGDGKSSSAASRSSSLVNLWKRRGSSGETLRYKDRRLAQHKSEIECFTPKGSMGNGGRATMSSSNGKSVTWAQNEKSSRGQHLWQRLSIHINKKENPNQTAVIKPFPKSTESRGLGAGAGAGGSAGGVGATGGAGCAGAGPGGPESPDAGPKALYDVAEAEEHFPAPARPRSPSPISTLSHRAGSASRTDDDVPSLHSEPVARSSSSQGSLMEQISSVVTRFTANISELNSMMLSTAAPSPGVGAPLCSSYLIPKEIQLPTTMTTFAEIQPLPAIEVTGGAQPAAGAQAAGDAARESPAAGPEAAAAKPDLEELVALTPPSPFRDSVDSGSTTPNSPVSESALCIPSSPKYDTLIIRDYTQSSSSL
modifications: SNAP tag labelled with BG-LD555
notes: mGluR5; the previously reported full-length SNAP-tagged mGluR cDNA (Doumazane et al., 2011) from which the human mGluR5-TMD clone was made; source: HEK 293T, transfected, surface-labelled, in detergent lysate; not shown: HA, N-terminal, kept; SNAP, N-terminal, kept
For orientation: stoichiometry N means a count of units in the complex or per binding partner. On to B1, for which the “percent of spots bleaching in two steps” value was 48.4% and the “stoichiometry N” value came to 2.
